Laboratory results taken from paper PMC4599898.
These are yes or no findings as the source states them, for the method shown. In cells and extracts the contact can be indirect.

By UniProt entry, the sequences of proteins in these tests, tags left out.
UniProt C0Z2L5: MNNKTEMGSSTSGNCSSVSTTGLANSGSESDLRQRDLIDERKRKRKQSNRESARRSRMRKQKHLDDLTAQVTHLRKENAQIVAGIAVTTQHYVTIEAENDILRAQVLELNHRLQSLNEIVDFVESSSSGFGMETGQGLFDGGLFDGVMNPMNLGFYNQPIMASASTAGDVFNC

What was measured:
Assay in all cases: split reporter; split YFP BiFC in transiently transformed Arabidopsis protoplasts, 2 ug of each plasmid, incubated overnight; read by flow cytometry (at least three biological replicates, minimum 30,000 cells); each pair tested in both fusion conformations (SPN and SPC); positive where the normalized BiFC score lies above the threshold 0.01 in both conformations
[1] = molecular target: T1, GBF3 (Arabidopsis thaliana) (UniProt P42776)
T1 sequence: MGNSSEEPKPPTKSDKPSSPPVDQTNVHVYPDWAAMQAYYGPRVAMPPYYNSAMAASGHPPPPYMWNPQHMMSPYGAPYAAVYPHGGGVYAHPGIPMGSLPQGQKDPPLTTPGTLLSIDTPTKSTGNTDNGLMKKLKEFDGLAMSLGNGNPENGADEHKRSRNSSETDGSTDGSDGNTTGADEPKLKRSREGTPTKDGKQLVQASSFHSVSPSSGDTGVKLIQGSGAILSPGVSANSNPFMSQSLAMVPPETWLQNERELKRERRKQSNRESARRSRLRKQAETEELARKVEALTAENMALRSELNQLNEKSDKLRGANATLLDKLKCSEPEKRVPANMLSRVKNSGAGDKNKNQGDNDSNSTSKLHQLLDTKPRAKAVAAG

[2] = molecular target: T2, bZIP16 (Arabidopsis thaliana) (UniProt Q501B2)
T2 sequence: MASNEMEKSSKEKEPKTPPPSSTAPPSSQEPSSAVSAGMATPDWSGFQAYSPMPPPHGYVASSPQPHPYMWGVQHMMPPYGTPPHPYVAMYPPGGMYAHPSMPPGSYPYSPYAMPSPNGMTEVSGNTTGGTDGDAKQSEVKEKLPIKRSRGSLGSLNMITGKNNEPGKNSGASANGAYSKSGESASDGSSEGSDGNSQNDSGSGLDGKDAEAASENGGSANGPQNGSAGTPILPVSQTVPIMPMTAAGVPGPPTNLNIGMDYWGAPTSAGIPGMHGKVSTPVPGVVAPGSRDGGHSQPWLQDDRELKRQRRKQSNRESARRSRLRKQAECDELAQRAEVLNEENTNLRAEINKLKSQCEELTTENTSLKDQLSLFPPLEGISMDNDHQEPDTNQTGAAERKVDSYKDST

[3] = molecular target: T3, GBF2 (Arabidopsis thaliana) (UniProt P42775)
T3 sequence: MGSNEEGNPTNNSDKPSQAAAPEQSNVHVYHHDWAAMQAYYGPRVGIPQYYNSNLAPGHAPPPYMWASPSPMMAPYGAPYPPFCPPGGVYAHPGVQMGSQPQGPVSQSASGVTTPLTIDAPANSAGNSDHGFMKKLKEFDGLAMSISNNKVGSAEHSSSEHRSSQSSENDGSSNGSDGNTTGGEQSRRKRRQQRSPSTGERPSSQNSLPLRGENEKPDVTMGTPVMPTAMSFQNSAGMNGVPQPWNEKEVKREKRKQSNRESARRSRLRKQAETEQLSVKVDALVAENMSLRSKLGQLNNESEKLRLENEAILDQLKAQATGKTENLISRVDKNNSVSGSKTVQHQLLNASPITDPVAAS

[4] = molecular target: T4, bZIP68 (Arabidopsis thaliana) (UniProt Q84LG2)
T4 sequence: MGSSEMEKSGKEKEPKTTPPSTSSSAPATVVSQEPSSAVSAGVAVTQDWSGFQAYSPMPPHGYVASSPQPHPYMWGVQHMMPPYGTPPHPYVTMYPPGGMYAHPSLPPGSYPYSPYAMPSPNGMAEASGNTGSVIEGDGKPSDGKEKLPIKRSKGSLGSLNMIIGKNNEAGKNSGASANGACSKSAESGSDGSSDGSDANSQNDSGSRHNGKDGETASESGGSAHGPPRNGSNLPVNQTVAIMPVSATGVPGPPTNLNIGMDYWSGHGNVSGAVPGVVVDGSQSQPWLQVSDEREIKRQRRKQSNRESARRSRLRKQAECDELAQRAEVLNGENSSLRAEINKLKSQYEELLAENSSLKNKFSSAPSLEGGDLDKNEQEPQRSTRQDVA

[5] = molecular target: T5, GBF1 (Arabidopsis thaliana) (UniProt P42774)
T5 sequence: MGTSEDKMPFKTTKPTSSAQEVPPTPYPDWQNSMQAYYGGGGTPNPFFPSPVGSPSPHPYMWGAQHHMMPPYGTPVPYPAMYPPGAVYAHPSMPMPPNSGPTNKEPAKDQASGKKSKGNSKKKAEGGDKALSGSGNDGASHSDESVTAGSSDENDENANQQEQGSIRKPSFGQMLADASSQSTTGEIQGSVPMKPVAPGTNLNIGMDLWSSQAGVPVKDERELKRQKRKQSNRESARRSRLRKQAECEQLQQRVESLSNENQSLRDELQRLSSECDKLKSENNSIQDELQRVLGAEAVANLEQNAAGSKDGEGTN

Measured: binding

bZIP44 (from UniProt C0Z2L5 1-173)
no binding: all assays above
